From article PMC4336329 (PLoS ONE, 2015)
The campaign covered roughly 310,000 compounds. About 14,000 (4.5%) showed an effect of 50% or more. The effect is printed as a negative number. The list shows a part of the results.

molecular target: human ether-à-go-go-related gene (hERG) potassium channel (human, UniProt Q12809); test: primary screen, population patch clamp on CHO cells stably expressing hERG
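Note: peak tail current of the secondary pulse compared with the same well before compound.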

human ether-à-go-go-related gene (hERG) potassium channel, sequence (Q12809 whole entry, looked up): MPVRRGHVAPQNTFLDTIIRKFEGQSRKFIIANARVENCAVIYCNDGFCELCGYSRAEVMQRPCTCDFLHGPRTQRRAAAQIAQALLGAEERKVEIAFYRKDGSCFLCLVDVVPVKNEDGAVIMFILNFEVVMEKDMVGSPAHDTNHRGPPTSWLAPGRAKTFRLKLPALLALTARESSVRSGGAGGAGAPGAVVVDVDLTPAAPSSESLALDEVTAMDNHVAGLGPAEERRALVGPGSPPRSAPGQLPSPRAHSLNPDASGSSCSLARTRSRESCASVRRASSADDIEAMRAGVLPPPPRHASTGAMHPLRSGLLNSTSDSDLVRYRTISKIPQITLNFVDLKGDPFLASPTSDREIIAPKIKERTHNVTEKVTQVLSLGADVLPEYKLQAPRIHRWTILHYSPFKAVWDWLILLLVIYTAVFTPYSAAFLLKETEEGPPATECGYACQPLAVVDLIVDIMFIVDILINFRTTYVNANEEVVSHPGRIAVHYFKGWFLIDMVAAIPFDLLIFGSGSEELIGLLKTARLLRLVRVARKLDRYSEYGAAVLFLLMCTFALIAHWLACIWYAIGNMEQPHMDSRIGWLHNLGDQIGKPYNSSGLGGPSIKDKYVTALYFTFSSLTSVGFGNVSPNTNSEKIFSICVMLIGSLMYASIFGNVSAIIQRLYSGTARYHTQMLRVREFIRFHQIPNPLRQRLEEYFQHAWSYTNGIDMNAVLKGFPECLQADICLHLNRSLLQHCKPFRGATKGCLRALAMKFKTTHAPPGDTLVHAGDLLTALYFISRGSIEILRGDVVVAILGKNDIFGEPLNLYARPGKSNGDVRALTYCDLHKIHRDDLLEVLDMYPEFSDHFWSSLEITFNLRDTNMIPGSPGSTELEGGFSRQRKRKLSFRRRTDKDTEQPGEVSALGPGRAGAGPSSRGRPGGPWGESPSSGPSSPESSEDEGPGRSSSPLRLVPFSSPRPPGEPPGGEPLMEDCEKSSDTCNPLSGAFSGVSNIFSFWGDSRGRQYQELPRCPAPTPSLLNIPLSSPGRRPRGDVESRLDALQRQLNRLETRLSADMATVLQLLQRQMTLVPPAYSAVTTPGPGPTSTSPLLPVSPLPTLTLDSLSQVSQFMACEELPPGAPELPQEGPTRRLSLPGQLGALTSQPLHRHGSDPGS

| Structure (SMILES) | hERG current change (%, negative = inhibition) at 10uM [%] |
| --- | --- |
| Cc1noc(C)c1S(=O)(=O)Nc1ccccc1OC(F)(F)F | -15.6 |
| COc1cccc(CSCC(=O)NCCc2ccccc2)c1OC | 6.55 |
| COc1ccccc1COC(=O)Nc1c(C)nn(C)c1Cl | 1.05 |
| O=C(Nc1ccc([N+](=O)[O-])cc1)C1C(c2ccccc2)=C1c1ccccc1 | -14.8 |
| Cc1cnc(NC(=O)CCNC(=O)c2ccc([N+](=O)[O-])cc2)s1 | 12.8 |
| CCOC(=O)N1CCN(C(=O)CSc2ccc(-c3cccnc3)nn2)CC1 | 16.1 |
| CC(=O)Nc1cccc(NC(=O)CCc2ccccc2)c1 | 9.06 |
| Cc1ccc(CCNC(=O)C2CCCN(S(C)(=O)=O)C2)cc1 (stereo not shown) | 9.65 |
| CC(=O)Nc1ccc(NC(=O)/C=C/c2ccc(Cl)cc2)cc1 | 7.21 |
| Cc1ccc(-n2c(O)c(C=NCCCn3ccnc3)c(=O)[nH]c2=O)cc1 | 19.6 |
| Cc1ccsc1C(=O)OC1CCOC1=O (stereo not shown) | 10.9 |
| Cc1nc(NC(=O)c2cc3ccccc3o2)ccc1Br | 7.03 |
| COc1ccc(/C=N/NC(=O)c2cccnc2)cc1Cn1nc([N+](=O)[O-])c(Br)c1C | -12.9 |
| CCOC(=O)Cc1[nH]nc2c1C(Cc1ccccc1)C(C#N)=C(N)O2 (stereo not shown) | -0.308 |
| COc1cccc(C(C(=O)NC(C)(C)C)N(CCC(C)C)C(=O)CCC(=O)Nc2cc(C)on2)c1OC (stereo not shown) | -13.3 |
| CCOC(=O)c1ccc(Nc2cc(C)nc(-c3ccccc3)n2)cc1 | 5.74 |
| COc1cc(C(=O)Nc2ccc(C)cn2)ccc1OCC(=O)N1CCOCC1 | -25.4 |
| Cc1ccc(S(=O)(=O)CCC(=O)NCc2ccccc2Cl)cc1 | -0.876 |
| Cc1ccc(CC(=O)Nc2cccnc2)cc1 | 5.87 |
| CCN(CC)S(=O)(=O)c1ccc(NC(=O)c2nc3nc(C)cc(C)n3n2)cc1 | -1.21 |

| Structure (SMILES) | hERG current change (%, negative = inhibition) at 10uM [%] |
| --- | --- |
| Cc1ccc2nc(NC(=O)C3=NN(c4ccccc4)C(=O)CC3)sc2c1 | 4.71 |
| CCN(CC)c1ccc(S(=O)(=O)N2CCCCC2)cc1NC(=O)CN1C(=O)NC2(CCCC2)C1=O | -16.7 |
| CCCCc1nc2ccccc2c(=O)n1-c1ccc(O)cc1 | 1.86 |
| COc1cc(Cl)ccc1OCc1cc(C(=O)N2CCN(C)CC2)no1 | 0.0146 |
| Cc1cccc(C)c1NC(=S)N(CCN(C)C)C(C)c1ccccn1 (stereo not shown) | -4.36 |
| Cc1ccc(C)c(OCC(=O)NNC(=O)CSC(=S)N2CCCC2)c1 | 6.05 |
| CC#CCN1c2ccccc2[C@]23C[C@@H](C(=O)OC)N(C(=O)NC4CCCCC4)C2=NC(C(=O)OC)=C(C(=O)OC)[C@H]13 | 6.01 |
| CCCOc1ccc(-c2nc(C#N)c(N3CCC(C(N)=O)CC3)o2)cc1 | -4.61 |
| COc1ccc(Br)cc1C(=O)Nc1ccc(N2CCN(S(C)(=O)=O)CC2)cc1 | 15.2 |
| Cc1ccnc(NC(=O)CNC(=O)COc2ccccc2)c1 | 1.18 |
| CCOc1ccc(C(=O)NCC(c2cccs2)N(C)C)cc1 (stereo not shown) | -41.8 |
| Cc1cc(NC(=O)Cn2ccc([N+](=O)[O-])n2)no1 | 15.4 |
| CCCc1nnc(NC(=O)Cn2c(=O)sc3ccccc32)s1 | 6.86 |
| Cn1cc(Br)c(C(=O)N/N=C/c2cc3ccccc3nc2Cl)n1 | 2.43 |
| O=C(CSc1ncccn1)NCc1cccc(Cl)c1 | 17.2 |
| CCCSc1nnc2nc3c(nn12)c1ccccc1n3C | -49.7 |
| COc1cc(-c2noc(C)c2C#Cc2ccccn2)cc(OC)c1OC | -29 |
| O=C(COC(=O)CCc1c[nH]c(=O)[nH]1)Nc1ccccc1Cl | -4.16 |
| CCC1SC(CC)C(=O)N(CC(=O)Nc2ccc3c(c2)OCO3)C1=O (stereo not shown) | -0.361 |
| CC(C)NC(=O)CCCN1C(=O)c2ccccc2Sc2ncccc21 | 26.1 |

| Structure (SMILES) | hERG current change (%, negative = inhibition) at 10uM [%] |
| --- | --- |
| Cl.O=C(CCN1CCC(c2ccccc2)C1)c1ccc2c(c1)OCCO2 (stereo not shown) | -56 |
| O=C(CSc1ncnc2nc[nH]c12)N1CCN(c2ccc(Cl)cc2)CC1 | -32.8 |
| CCCCn1c(N)c(N(CC(C)C)C(=O)c2ccc(F)c(S(=O)(=O)N3CCOCC3)c2)c(=O)[nH]c1=O | -7.46 |
| CC(O)CNCc1ccc(Cl)cc1Cl.Cl (stereo not shown) | 12.3 |
| O=C(Nc1ccncc1)c1cncc(Br)c1 | 6.81 |
| O=C(/C=C/c1ccccc1)N/C(=C/c1ccccc1)C(=O)N1CCOCC1 | -58.8 |
| Cc1[nH]c2ccc(F)cc2c(=O)c1SC(F)(F)C(F)C(F)(F)F (stereo not shown) | -1.2 |
| S=C(c1ccc(-c2ccccc2)o1)N1CCCCC1 | 11.5 |
| CCn1ncc(Br)c1C(=O)Nc1cc(C)cc(C)c1 | 2.89 |
| Cn1c(N)c(C(=O)NCc2ccccc2Cl)sc1=S | 18 |
| O=C1CC(NCc2ccncc2)C(=O)N1c1ccc(Cl)cc1 (stereo not shown) | 1.27 |
| CCOC(=O)N1CCN(CC(=O)Nc2ccc(C)c(Br)c2)CC1.Cl | -16.1 |
| COc1ccc2cc(-c3ccccc3F)ncc2c1 | 3.84 |
| COc1ccc(C(=O)N2CCC(C(=O)Nc3ccc(C)cc3)CC2)cc1 | -75.9 |
| O=C1CCC(C(=O)O)N1 (stereo not shown) | 7.34 |
| O=C(CCC1CCCN(Cc2cccc3c2OCO3)C1)NCc1ccc(F)c(F)c1 (stereo not shown) | -74.4 |
| CCOC(=O)CSc1cc(C(F)(F)F)nc(-c2ccccn2)n1 | -31.5 |
| Cc1c(Br)c([N+](=O)[O-])nn1CCCC(=O)Nc1c(C)n(C)n(-c2ccccc2)c1=O | 12 |
